The list shows a part of the results. At the low end of the ranking the order means little.
Tested on: T1, GST-NbGlk1(82-244)
T1 sequence: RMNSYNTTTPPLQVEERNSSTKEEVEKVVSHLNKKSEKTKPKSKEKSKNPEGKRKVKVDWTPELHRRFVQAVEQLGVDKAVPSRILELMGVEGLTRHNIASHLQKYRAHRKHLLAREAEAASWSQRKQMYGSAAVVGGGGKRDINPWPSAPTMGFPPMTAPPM
Test: protein-binding microarray;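 further: rank-based score ranging −0.5 to +0.5 with E above 0.45 taken as significant binding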
Conditions: NbGlk1 is a Golden2-like transcription factor of Nicotiana benthamiana; high values mean tight binding; most listed sequences are background and not binding sites; double strand, one strand shown

Sequence	binding signal [E-score]
ACCAGAAT	0.149
AAGTTGCG	-0.0262
AAAAGGGT	-0.177
AGCTGTCA	-0.125
ACATAACT	-0.00256
CAGCAATA	0.184
ACGGAGGA	-0.128
AAACTAAG	0.055
AGCATGGG	-0.205
AATGGGAT	0.174
CAGAGGAG	-0.147
ATCCTTCG	0.106
CAAATATA	0.245
ACAGATGA	0.0626
AGTAGCAA	0.066
AAGGCTAG	-0.142
CAATCCCC	0.194
ACCACCAC	-0.16
AACATATT	0.172
AAGCCCAC	-0.198
ACCTACGT	-0.148
ATGCGGAA	0.077
AGCTATGA	0.0193
ACAGTATA	0.203

Sequence	binding signal [E-score]
ACCTGAAG	-0.11
ACTTATAC	0.141
ATGTATTG	0.00833
AACGCGTT	0.00919
ACGTTTAT	-0.0287
AACCGTGG	-0.137
AATCCCAG	0.342
AACCGACC	-0.1
CAACAGAC	-0.0742
AACTAGAT	0.208
ACGGATCA	0.102
AATAGGTA	0.0364
CAACATTC	-0.0757
ATTTCTAG	0.261
ACGCGATC	0.437
AATTGTCT	0.0922
AGCCACGG	-0.294
AATCGGAA	0.296
ATGTCAGC	-0.0616
ACGACGAA	-0.0302
CAGAGTCG	-0.141
ATCAATCC	0.0601
ATCTACCC	0.15
AAGGGAAA	0.132

Sequence	binding signal [E-score]
AGACCTGA	-0.111
CAAAACGA	0.0285
AACAGACC	-0.0314
ACAACTGG	-0.162
AGACCATC	-0.191
CACTATTC	-0.0347
ACATTGAA	0.00539
ATTAGTAA	0.0358
ACAGAGAT	0.267
AATGGGGA	0.0144
ACCTAAAG	-0.0978
AACTTGGA	-0.0519
AGGTTCTC	-0.247
AAGTGAGA	0.0589
AAGAAAAA	0.164
ATGCGTAC	0.000502
AGCGGAAT	0.162
ACACCACT	-0.103
AAATTTCC	0.305
AGAAGTCT	0.0662
AGACATGC	-0.0692
CAGAACCC	-0.178
CAGATTCC	0.473
AACATTCC	0.0127

Sequence	binding signal [E-score]
AAAGATTA	0.318
AGACTTCC	-0.272
CACCGTAC	-0.0425
ACGCTGCA	0.00061
ACGAGAGG	-0.00422
AACCTTAA	-0.0854
AGTCTGGA	-0.121
ATCAACGG	0.132
CACCCCGA	0.0631
AATAAGGA	0.0725
ACACGCCC	-0.154
AAGGTGAC	-0.108
ATCTCCCG	0.184
AGCTCGGG	-0.121
ACCTTTTC	0.0641
ATGATGAG	-0.0301
ACTTAGGC	-0.0531
ACCTGTTC	-0.232
ACGGACGA	-0.0738
CAGAGGCC	-0.234
ATCGCAGC	0.031
ACGCACGA	-0.00453
